This is one part of the list.
T1: UNK ZnF1-6 (called full-length) (human, UniProt Q9C0B0 30-357)
T1 sequence: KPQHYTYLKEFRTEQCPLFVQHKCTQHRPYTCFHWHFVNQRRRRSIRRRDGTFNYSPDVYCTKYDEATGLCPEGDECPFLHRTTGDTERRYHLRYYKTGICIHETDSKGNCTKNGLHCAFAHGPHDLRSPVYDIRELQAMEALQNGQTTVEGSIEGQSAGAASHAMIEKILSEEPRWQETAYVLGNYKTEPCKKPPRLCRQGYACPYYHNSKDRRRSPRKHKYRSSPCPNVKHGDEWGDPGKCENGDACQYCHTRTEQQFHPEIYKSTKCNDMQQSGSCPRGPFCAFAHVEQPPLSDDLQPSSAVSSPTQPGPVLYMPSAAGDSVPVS

B1: chr8:97851660:97851768:+|3pUTR|ENSG00000104341|msi1_unk|FALSE|overlapping (ssRNA)
RNA: GGGAGUUCUACAGUCCGACGAUCAUUAACUGUAGAAUUCUUCCUGUACGAUUGGGGAUAUAAUGGGCUUCACUAACCUUCCCUAGGCAUUGAAACUUCCCCCAAAUCUGAUGGACCUAGAAGUCUGCUUUUGUACCUGCUGGGCAACAGAGGAUUGAGCAUCA
B2: chr3:196782704:196782805:+|CDS|ENSG00000180370|unk|total|mutant (ssRNA)
RNA: GGGAGUUCUACAGUCCGACGAUCAACGGAGAACUGGAAGAUAAGCCUCCAGCACCUCCUGUGCGAAUGAGCAGCACCAUCUUCCGCACUGGAGGCAAAGACCCUUUGUCAGCCAAUCACAGUUUGAAACCUUUGCCCUCUGUUCAACAGAGGAUUGAGCAUCA
B3: chr3:89481969:89482070:+|3pUTR|ENSG00000044524|msi1|total|mutant (ssRNA)
RNA: GGGAGUUCUACAGUCCGACGAUCAUAUGUGUUUACUUUAAACUUGUCUUUUCAAAAUAUUACUCAGUUUAUGUUGUACAAUGCCGAUGGCCUCUUACUAAUGUAAAAUGAUUUGCCGUGGAAACAUUUAUAUUUUUAUAAUAACAACAGAGGAUUGAGCAUCA
B4: chr14:22612100:22612201:+|3pUTR|ENSG00000100439|msi1|FALSE|unique (ssRNA)
RNA: GGGAGUUCUACAGUCCGACGAUCCCACCCCUGACCCAUCUGUCAGCUUUUUCCCAGGGAGCCGUUUCAGGGGUUCUGGGCAGUAGGCUGGGCCUGGCCUCAGAACCUGGUGGCUCCUGCCUGCUCCUUCACUUUUGUAAAACCCAACAGAGGAUUGAGCAUCA
B5: ENSG00000070961:be:win_1|CDS|ENSG00000070961|bound_else_gene|NA|bound_elsewhere_windowed (ssRNA)
RNA: GGGAGUUCUACAGUCCGACGAUCAUGGGCGACAUGGCAAACAACUCAGUUGCUUACAGUGGUGUGAAAAACUCUUUGAAGGAAGCUAAUCAUGAUGGAGACUUUGGAAUUACGCUCGCAGAGCUGCGGGCUCUCAUGGAGCUCCAACAGAGGAUUGAGCAUCA
B6: chr4:2944067:2944171:-|CDS|ENSG00000087269|unk|total|mutant (ssRNA)
RNA: GGGAGUUCUACAGUCCGACGAUCGGCUUUGUCCCAGAGGUUUAUACCUGAGCUUAUUAAUUUUCUUCUUGGGAUUCUUUACACCGCAACUCCAAACAAAGCAAGCCAAGGUGAGUUGAUUUGAGGGAGGUUCCUACAAAUAUGCAACAGAGGAUUGAGCAUCA
B7: chr2:1632407:1632508:-|3pUTR|ENSG00000130508|msi1|total|mutant (ssRNA)
RNA: GGGAGUUCUACAGUCCGACGAUCUUGGUAAGUGAUUGAUAAAAAUUGGUUGGUGUUUCAUGACAUGUGGACUUCUUUUGAAACCGCAAGUCAAAUGCCGUGACCAAAUUGUGGAAGAGAUUUCUGUCAAACCGGAAAUGUGUACAACAGAGGAUUGAGCAUCA
B8: chr11:95131931:95132033:+|3pUTR|ENSG00000149218|unk|FALSE|bound_elsewhere (ssRNA)
RNA: GGGAGUUCUACAGUCCGACGAUCGGAUAGGUGGCUGAGACCCACUGCCCUGAGCUACUAGUGUGGCUGUGCCUGUGGGUCUCUAGAACCAUCUGCAUUGGACGUGAAGCCACAGCAGGUGGCUGGACUGCUGGCCUGUUCCUACAACAGAGGAUUGAGCAUCA
B9: chrX:119453419:119453520:+|3pUTR|ENSG00000077713|unk|total|mutant (ssRNA)
RNA: GGGAGUUCUACAGUCCGACGAUCCAGGUAAUUGAAGUGGCUGAGUGGAUACCACGUUGUGAGGUCAGCCACUGGGUCACUUGCCGUCAAUGCAAAGCUUGCACAAACCAACGUCAGCCCCGUUUCACUCAGUUUGACCUGAGACAACAGAGGAUUGAGCAUCA
B10: chr7:149003559:149003660:-|3pUTR|ENSG00000155660|msi1|FALSE|unique (ssRNA)
RNA: GGGAGUUCUACAGUCCGACGAUCUUUUAUACUUUGGUGUUUCACUUCAUGCUCUGAAUACUGAAUAACCAUGAAUGACUGAAUAGUUUAGUCCAGAUUUUUACAGAGGAUACAUCUAUUUUUAUCAUUAUUUGGGGUUUGAAACAACAGAGGAUUGAGCAUCA
B11: chr1:185309019:185309167:-|CDS|ENSG00000116679|unk|total|mutant (ssRNA)
RNA: GGGAGUUCUACAGUCCGACGAUCGCACACAGAGCAGUGCCCGCUUGCUGCAGUCCCUAUUUAUUUGAAAUCUUUAACCGUGACCGUGAUCCUCAUGGAAUUUCUCACGUUAAAUUUGAUGAUCUCAAUCCAGAAGCUGUUGAACAACAGAGGAUUGAGCAUCA
B12: chr14:71588152:71588260:+|CDS|ENSG00000197555|unk|FALSE|unique (ssRNA)
RNA: GGGAGUUCUACAGUCCGACGAUCGAAAACAUAAAAGAAUCUAGCCGUUCAAGCCAGGAAAUAGAAACCUCAAGUUGCCUUGAUAGCCUGUCCUCCAAAAGCAGUCCUGUGAGUCAGGGAAGUUCUGUUAGCCUCAAUUCCAAUCAACAGAGGAUUGAGCAUCA
B13: chr5:141516432:141516515:-|3pUTR|ENSG00000131504|msi1_unk|FALSE|overlapping (ssRNA)
RNA: GGGAGUUCUACAGUCCGACGAUCCUCAGACAAGGCCCAGCCUGCUUUUUCUCAGCCCUGACUUUCUAAUGGGCUUUCCCCCCUAGGUCAGUCUUGCUGGAUUUGUGCUUUUCUUUUGUGGUUUCUCUGGCCCUGAGAAUAGCACAACAGAGGAUUGAGCAUCA
B14: ENSG00000198589:be:win_3501|CDS|ENSG00000198589|bound_else_gene|NA|bound_elsewhere_windowed (ssRNA)
RNA: GGGAGUUCUACAGUCCGACGAUCUGAUACUGAAACUCAAGAUUCUAAAGAUUCUGGAAUUCAGACUAUGACAGCAUCAGGGUCUUCAGCUAUGUCACCAGAAACUACUGUUUCCCAAAUAGCUGUAGAAUCAGACCUUGGUCACAACAGAGGAUUGAGCAUCA
B15: chr4:83459516:83462902:-|three_prime_utr|ENSG00000163322|control|control|control (ssRNA)
RNA: GGGAGUUCUACAGUCCGACGAUCUUACGGACCUUUUUUCCAAAUUCUGAAUUUCUUCAUUCAUGUGUUAUGUCUUUAAAAAAUAGACAUGUUUCUAAAAGUAGCUGUAACUACAACCACCAUCUCGAUGUAGUAGACAAUCUGCAACAGAGGAUUGAGCAUCA
B16: chr1:220062840:220062943:-|CDS|ENSG00000162813|unk|FALSE|unique (ssRNA)
RNA: GGGAGUUCUACAGUCCGACGAUCGUUUACACAGGCAGGACCAGAUGCUGUGUUGGGGAGGACAAUCUGGGGAGUUUUAGGUUUAGGCGCCUUUGGGUUUCAGCUGAAAGAAGUCCCUGCUGGGAAACACAUUAUCACAACUACCAACAGAGGAUUGAGCAUCA
B17: chr20:5938399:5938502:-|3pUTR|ENSG00000089195|unk|FALSE|unique (ssRNA)
RNA: GGGAGUUCUACAGUCCGACGAUCGUCUGACUCUUAACCCUUUUGAGAAUUGCUCUGAAUUUUGUUCUCAGGCAUUAUACAGUUAGUAAUUAAACUUUAAAUGCCAUUACUACUUGUUUUUUCAUAUCCCAAGAAUAAGAACAUCAACAGAGGAUUGAGCAUCA
B18: chrX:101413019:101413185:+|CDS|ENSG00000126945|unk|FALSE|unique (ssRNA)
RNA: GGGAGUUCUACAGUCCGACGAUCGGAGCUCUUCUUAAAUUCUACUGCAGGAACAAGUGGGGGUGCUUACGAUCACAGCUAUGUAGAACUUUUUUUGAAUUCUACAGCAGGGGCAAGUGGUGGCGCUUAUGGUAGCCAAAUGAUCAACAGAGGAUUGAGCAUCA
B19: chr7:92612324:92612425:-|3pUTR|ENSG00000105810|msi1|total|mutant (ssRNA)
RNA: GGGAGUUCUACAGUCCGACGAUCAUCCAACACAAGCAGUCUUGCCGUCCGGGCAUUUUGAAGCAGACCGCCGAGUAAGAACUCCGUGACUACAGCUUAUUCUUCUGUAACAUAUGGUUUCAAACAUCUUUGCCAAAAGCUAAGCAACAGAGGAUUGAGCAUCA
B20: chr8:27776916:27777017:+|CDS|ENSG00000171320|unk|FALSE|unique (ssRNA)
RNA: GGGAGUUCUACAGUCCGACGAUCAAACCACAAGUUACACUCCAGGGUGGAGCAGCAUUUUUUGUUAGAAAAAAAUCUUCUCUUAGAAAAUCGUCCCUGGAAAAUGAGCCGUCACUGGGACGCACCCAAAAGAGUAAAUCAGAACAACAGAGGAUUGAGCAUCA
B21: ENSG00000198589:be:win_151|CDS|ENSG00000198589|bound_else_gene|NA|bound_elsewhere_windowed (ssRNA)
RNA: GGGAGUUCUACAGUCCGACGAUCUUGACCGGUUUGGUUGAAGUUGGAGAAGUAUCCAAUAGGGAUAUUGUAGAAACUGUCUUUAACCUGUUGGUAGGAGGACAGUUUGAUCUGGAAAUGAAUUUCAUUAUCCAAGAAGGUGAGCAACAGAGGAUUGAGCAUCA
B22: chr2:216122066:216122255:+|CDS|ENSG00000079246|unk|total|mutant (ssRNA)
RNA: GGGAGUUCUACAGUCCGACGAUCCCAUGGGCCUUCCUUUCCACUAAAAGGAAUUACCGAACAGCAAAAAGAAGGUCUUGAGACCGUGAAAAUGGUGAUGAUAUCUUCCGAAGGUGAAGAUGGGUUGGAUGAAAUUUAUUCAUUCAACAGAGGAUUGAGCAUCA

target: T1, UNK ZnF1-6 (called full-length); assay: nsRBNS (natural sequence RNA bind-n-seq); RBNS binding buffer (assumed for nsRBNS): 25 mM Tris pH 7.5, 150 mM KCl, 3 mM MgCl2, 0.01% Triton X-100, 500 ug/ml BSA, 20 U/ml SUPERase-In, 4 C; UNK is unkempt and MSI1 is Musashi-1; names of the RNAs are library labels; protein concentration not given here; high values mean tight binding

Point of comparison: B1, binding signal 1.04 enrichment R. Against it:
- B2 — lower, 0.544 enrichment R
- B3 — lower, 0.702 enrichment R
- B4 — lower, 0.718 enrichment R
- B5 — lower, 0.508 enrichment R
- B6 — lower, 0.726 enrichment R
- B7 — lower, 0.207 enrichment R
- B8 — lower, 0.43 enrichment R
- B9 — lower, 0.475 enrichment R
- B10 — lower, 0.578 enrichment R
- B11 — lower, 0.633 enrichment R
- B12 — lower, 0.808 enrichment R
- B13 — lower, 0.705 enrichment R
- B14 — lower, 0.311 enrichment R
- B15 — lower, 0.723 enrichment R
- B16 — higher, 1.36 enrichment R
- B17 — lower, 0.795 enrichment R
- B18 — higher, 1.17 enrichment R
- B19 — lower, 0.871 enrichment R
- B20 — lower, 0.522 enrichment R
- B21 — lower, 0.347 enrichment R
- B22 — lower, 0.46 enrichment R
